Data taken from the supplement of paper PMC10369915.
The other results are listed elsewhere or left out. Rule as the data show it: active = 3.2 or more and inactive = the rest. Only a few entries rise above the background.

Target: SHP2 C-SH2 domain E139D
Test: enrichment score (SH2-bound / input frequency) (ratio); bacterial display of known human phosphotyrosine sites (pTyr-Var adds point mutants) read by sequencing; higher = stronger binding; tyrosines were phosphorylated by kinases first
Conditions: peptide library: pTyr-Var
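Also: displayed peptides selected on beads carrying the immobilized SH2 domain, with library peptides lacking any tyrosine serving as negative controls.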

Enrichment score, inactive:
KELSSYKHLTL [SLIT2_Y776_N775S] 0.774, LPHVIYCRLWC [SMAD2_Y128_R133C] 2.91, LAAAKYKLNVD [SMARCA2_Y1190] 0.709, LAAPKYKLNVD [SMARCA2_Y1190_A1188P] 0.852, GPSTPYTKSKR [SMARCC2_Y324] 0.555, KPLMPYMRYSR [SMARCE1_Y73] 0.213, KPLMPCMRFSR [SMARCE1_Y73_Y73C_YF] 0.352, KPLMPSMRYSR [SMARCE1_Y73_Y73S] 0.17, QMQLKYSQSDL [SMC1A_Y714_R711Q] 0.777, NKEAIYSGFIR [SMCHD1_Y283_YF] 0.784, ERSMSYCDESR [SMG1_Y143_S144C] 0.491, PSELYYSKIGP [SMG1_Y2254] 1.14, PSELYYSKISP [SMG1_Y2254_G2258S] 1.37, PSELFYSKISP [SMG1_Y2254_G2258S_YF] 1.46, VARAVYQAVLS [SMG1_Y549_H546R] 0.684, GRLVEYDIDEV [SMS_Y134] 0.923, IRDLKYTIENP [SND1_Y178] 1.02, IWDLKYTIENP [SND1_Y178_R174W] 1.33, DFKIIYIAPMR [SNRNP200_Y540] 1.7

Target: SHP2 C-SH2 domain wild-type
Test: as above
Conditions: peptide library: pTyr-Var

Enrichment score, inactive:
KELSSYKHLTL [SLIT2_Y776_N775S] 0.541, LPHVIYCRLWC [SMAD2_Y128_R133C] 2.42, LAAAKYKLNVD [SMARCA2_Y1190] 0.737, LAAPKYKLNVD [SMARCA2_Y1190_A1188P] 0.494, GPSTPYTKSKR [SMARCC2_Y324] 0.466, KPLMPYMRYSR [SMARCE1_Y73] 0.188, KPLMPCMRFSR [SMARCE1_Y73_Y73C_YF] 0.254, KPLMPSMRYSR [SMARCE1_Y73_Y73S] 0.289, QMQLKYSQSDL [SMC1A_Y714_R711Q] 0.465, NKEAIYSGFIR [SMCHD1_Y283_YF] 0.848, ERSMSYCDESR [SMG1_Y143_S144C] 0.508, PSELYYSKIGP [SMG1_Y2254] 1.72, PSELYYSKISP [SMG1_Y2254_G2258S] 3.04, PSELFYSKISP [SMG1_Y2254_G2258S_YF] 2.61, VARAVYQAVLS [SMG1_Y549_H546R] 0.864, GRLVEYDIDEV [SMS_Y134] 0.981, IRDLKYTIENP [SND1_Y178] 1.09, IWDLKYTIENP [SND1_Y178_R174W] 1.27, DFKIIYIAPMR [SNRNP200_Y540] 1.44

Target: SHP2 N-SH2 domain L43F
Test: as above
Conditions: peptide library: pTyr-Var

Enrichment score, inactive:
KELSSYKHLTL [SLIT2_Y776_N775S] 0.828, LPHVIYCRLWC [SMAD2_Y128_R133C] 2.58, LAAAKYKLNVD [SMARCA2_Y1190] 0.758, LAAPKYKLNVD [SMARCA2_Y1190_A1188P] 0.943, GPSTPYTKSKR [SMARCC2_Y324] 0.538, KPLMPYMRYSR [SMARCE1_Y73] 0.234, KPLMPCMRFSR [SMARCE1_Y73_Y73C_YF] 0.248, KPLMPSMRYSR [SMARCE1_Y73_Y73S] 0.244, QMQLKYSQSDL [SMC1A_Y714_R711Q] 0.529, NKEAIYSGFIR [SMCHD1_Y283_YF] 0.912, ERSMSYCDESR [SMG1_Y143_S144C] 0.555, PSELYYSKIGP [SMG1_Y2254] 1.42, PSELYYSKISP [SMG1_Y2254_G2258S] 2.3, PSELFYSKISP [SMG1_Y2254_G2258S_YF] 1.76, VARAVYQAVLS [SMG1_Y549_H546R] 0.572, GRLVEYDIDEV [SMS_Y134] 0.965, IRDLKYTIENP [SND1_Y178] 1.17, IWDLKYTIENP [SND1_Y178_R174W] 1.33, DFKIIYIAPMR [SNRNP200_Y540] 1.24

Target: SHP2 N-SH2 domain T42A
Test: as above
Conditions: peptide library: pTyr-Var

Enrichment score, inactive:
KELSSYKHLTL [SLIT2_Y776_N775S] 0.751, LPHVIYCRLWC [SMAD2_Y128_R133C] 3.04, LAAAKYKLNVD [SMARCA2_Y1190] 0.515, LAAPKYKLNVD [SMARCA2_Y1190_A1188P] 0.837, GPSTPYTKSKR [SMARCC2_Y324] 0.534, KPLMPYMRYSR [SMARCE1_Y73] 0.278, KPLMPCMRFSR [SMARCE1_Y73_Y73C_YF] 0.263, KPLMPSMRYSR [SMARCE1_Y73_Y73S] 0.29, QMQLKYSQSDL [SMC1A_Y714_R711Q] 0.603, NKEAIYSGFIR [SMCHD1_Y283_YF] 0.81, ERSMSYCDESR [SMG1_Y143_S144C] 0.564, PSELYYSKIGP [SMG1_Y2254] 2.01, PSELYYSKISP [SMG1_Y2254_G2258S] 1.98, PSELFYSKISP [SMG1_Y2254_G2258S_YF] 1.86, VARAVYQAVLS [SMG1_Y549_H546R] 1.19, GRLVEYDIDEV [SMS_Y134] 0.766, IRDLKYTIENP [SND1_Y178] 0.788, IWDLKYTIENP [SND1_Y178_R174W] 1.32, DFKIIYIAPMR [SNRNP200_Y540] 1.62

Target: SHP2 N-SH2 domain T52S
Test: as above
Conditions: peptide library: pTyr-Var

Enrichment score, inactive:
KELSSYKHLTL [SLIT2_Y776_N775S] 0.775, LPHVIYCRLWC [SMAD2_Y128_R133C] 2.89, LAAAKYKLNVD [SMARCA2_Y1190] 0.768, LAAPKYKLNVD [SMARCA2_Y1190_A1188P] 0.572, GPSTPYTKSKR [SMARCC2_Y324] 0.485, KPLMPYMRYSR [SMARCE1_Y73] 0.225, KPLMPCMRFSR [SMARCE1_Y73_Y73C_YF] 0.25, KPLMPSMRYSR [SMARCE1_Y73_Y73S] 0.228, QMQLKYSQSDL [SMC1A_Y714_R711Q] 0.42, NKEAIYSGFIR [SMCHD1_Y283_YF] 0.866, ERSMSYCDESR [SMG1_Y143_S144C] 0.591, PSELYYSKIGP [SMG1_Y2254] 0.803, PSELYYSKISP [SMG1_Y2254_G2258S] 1.75, PSELFYSKISP [SMG1_Y2254_G2258S_YF] 1.7, VARAVYQAVLS [SMG1_Y549_H546R] 0.631, GRLVEYDIDEV [SMS_Y134] 0.876, IRDLKYTIENP [SND1_Y178] 0.65, IWDLKYTIENP [SND1_Y178_R174W] 1.15, DFKIIYIAPMR [SNRNP200_Y540] 1.27

Target: SHP2 N-SH2 domain wild-type
Test: as above
Conditions: peptide library: pTyr-Var

Enrichment score, inactive:
KELSSYKHLTL [SLIT2_Y776_N775S] 0.739, LPHVIYCRLWC [SMAD2_Y128_R133C] 2.17, LAAAKYKLNVD [SMARCA2_Y1190] 0.867, LAAPKYKLNVD [SMARCA2_Y1190_A1188P] 0.762, GPSTPYTKSKR [SMARCC2_Y324] 0.496, KPLMPYMRYSR [SMARCE1_Y73] 0.352, KPLMPCMRFSR [SMARCE1_Y73_Y73C_YF] 0.308, KPLMPSMRYSR [SMARCE1_Y73_Y73S] 0.34, QMQLKYSQSDL [SMC1A_Y714_R711Q] 0.704, NKEAIYSGFIR [SMCHD1_Y283_YF] 0.818, ERSMSYCDESR [SMG1_Y143_S144C] 0.446, PSELYYSKIGP [SMG1_Y2254] 1.19, PSELYYSKISP [SMG1_Y2254_G2258S] 1.75, PSELFYSKISP [SMG1_Y2254_G2258S_YF] 0.658, VARAVYQAVLS [SMG1_Y549_H546R] 1.07, GRLVEYDIDEV [SMS_Y134] 1.08, IRDLKYTIENP [SND1_Y178] 1.19, IWDLKYTIENP [SND1_Y178_R174W] 1.92, DFKIIYIAPMR [SNRNP200_Y540] 1.44
